Measured values as given in the supplement of paper PMC4604168 (melanoma cell lines).
The list shows a part of the results. Single values are uncertain, as repeats are few or missing.

What follows are compounds tested on IPC-298 (assay: cell count relative to DMSO control; melanoma cells; higher = more viable cells). Conditions: library dose: low library concentration; 72 h.
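Also: cell number obtained by counting DAPI-stained nuclei in high-throughput microscope images with image analysis software, screen run in 1,536-well plates.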

Compound | cell count
Nc1nc(F)nc2c1ncn2[C@@H]1O[C@H](CO)[C@@H](O)[C@@H]1O [fludarabine] + c1cc(-c2cnn3cc(-c4ccc(OCCN5CCCCC5)cc4)cnc23)ccn1 [Dorsomorphin] (first compound 0.2 µM, partner dose 0.4 µM) | 93.5%
CO[C@H]1C[C@@H]2CC[C@@H](C)[C@@](O)(O2)C(=O)C(=O)N2CCCC[C@H]2C(=O)O[C@H]([C@H](C)C[C@@H]2CC[C@@H](OCCO)[C@H](OC)C2)CC(=O)[C@H](C)/C=C(\C)[C@@H](O)[C@@H](OC)C(=O)[C@H](C)C[C@H](C)/C=C/C=C/C=C/1C [everolimus] + O=C(Nc1ccccc1)c1cc([N+](=O)[O-])ccc1Cl [GW9662] (first compound 0.02 µM, partner dose 2 µM) | 81.4%
CC(=O)c1c(C)c2cnc(Nc3ccc(N4CCNCC4)cn3)nc2n(C2CCCC2)c1=O [palbociclib] + COC(=O)c1sccc1S(=O)(=O)Nc1ccc(Nc2ccccc2)cc1OC [GSK0660] (first compound 0.04 µM, partner dose 1 µM) | 82.4%
CO[C@H]1C[C@@H]2CC[C@@H](C)[C@@](O)(O2)C(=O)C(=O)N2CCCC[C@H]2C(=O)O[C@H]([C@H](C)C[C@@H]2CC[C@@H](OCCO)[C@H](OC)C2)CC(=O)[C@H](C)/C=C(\C)[C@@H](O)[C@@H](OC)C(=O)[C@H](C)C[C@H](C)/C=C/C=C/C=C/1C [everolimus] + Cn1cc(/C=C2\C(=O)Nc3cccnc32)c2ccccc21 [GW441756] (first compound 0.02 µM, partner dose 0.4 µM) | 64.8%
CO[C@H]1C[C@@H]2CC[C@@H](C)[C@@](O)(O2)C(=O)C(=O)N2CCCC[C@H]2C(=O)O[C@H]([C@H](C)C[C@@H]2CC[C@@H](OCCO)[C@H](OC)C2)CC(=O)[C@H](C)/C=C(\C)[C@@H](O)[C@@H](OC)C(=O)[C@H](C)C[C@H](C)/C=C/C=C/C=C/1C [everolimus] + CCN(CC)CCCCNc1ncc2cc(-c3cc(OC)cc(OC)c3)c(NC(=O)NC(C)(C)C)nc2n1 [PD173074] (first compound 0.02 µM, partner dose 0.1 µM) | 68.8%
Nc1ccn([C@@H]2O[C@H](CO)[C@@H](O)C2(F)F)c(=O)n1 [gemcitabine] + O=C1NC(=O)/C(=C/c2ccc(-c3ccc(F)cc3O)o2)S1 [AS252424] (first compound 0.0004 µM, partner dose 1 µM) | 85.6%
Nc1ccn([C@@H]2O[C@H](CO)[C@@H](O)C2(F)F)c(=O)n1 [gemcitabine] + Oc1nc(-c2ccc(C(F)(F)F)cc2)nc2c1CSCC2 [XAV939] (first compound 0.0004 µM, partner dose 2 µM) | 80.4%
Nc1ccn([C@@H]2O[C@H](CO)[C@@H](O)C2(F)F)c(=O)n1 [gemcitabine] + O=S(=O)(c1ccccc1)N(CC(F)(F)F)c1ccc(C(O)(C(F)(F)F)C(F)(F)F)cc1 [T0901317] (first compound 0.0004 µM, partner dose 1.4 µM) | 82.4%
Nc1nc(F)nc2c1ncn2[C@@H]1O[C@H](CO)[C@@H](O)[C@@H]1O [fludarabine] + CCc1ccc(CCOc2ccc(CC3SC(=O)NC3=O)cc2)nc1 [pioglitazone] (first compound 0.2 µM, partner dose 2 µM) | 95.5%
CC(=O)c1c(C)c2cnc(Nc3ccc(N4CCNCC4)cn3)nc2n(C2CCCC2)c1=O [palbociclib] + Cc1cc([N+](=O)[O-])ccc1NS(=O)(=O)c1cc(Cl)ccc1Cl [FH535] (first compound 0.04 µM, partner dose 1 µM) | 76.5%
CC(=O)O[C@@]12CO[C@@H]1C[C@H](O)[C@@]1(C)C(=O)[C@H](O)C3=C(C)[C@@H](OC(=O)[C@H](O)[C@@H](NC(=O)OC(C)(C)C)c4ccccc4)C[C@@](O)([C@@H](OC(=O)c4ccccc4)[C@H]21)C3(C)C [Docetaxel] + N#Cc1c(O)c2c(-c3ccc(-c4ccccc4O)cc3)csc2[nH]c1=O [A769662] (first compound 0.0001 µM, partner dose 2 µM) | 62%
Nc1ncn([C@H]2C[C@H](O)[C@@H](CO)O2)c(=O)n1 [decitabine] + COC(=O)c1sccc1S(=O)(=O)Nc1ccc(Nc2ccccc2)cc1OC [GSK0660] (first compound 0.1 µM, partner dose 1 µM) | 71.2%
CO[C@H]1C[C@@H]2CC[C@@H](C)[C@@](O)(O2)C(=O)C(=O)N2CCCC[C@H]2C(=O)O[C@H]([C@H](C)C[C@@H]2CC[C@@H](OCCO)[C@H](OC)C2)CC(=O)[C@H](C)/C=C(\C)[C@@H](O)[C@@H](OC)C(=O)[C@H](C)C[C@H](C)/C=C/C=C/C=C/1C [everolimus] + COc1ccc2c(c1)CCC1C2CCC2(C)C(NCCCCCCN3C(=O)C=CC3=O)CCC12 [U73122] (first compound 0.02 µM, partner dose 0.4 µM) | 74%
CC(=O)O[C@@]12CO[C@@H]1C[C@H](O)[C@@]1(C)C(=O)[C@H](O)C3=C(C)[C@@H](OC(=O)[C@H](O)[C@@H](NC(=O)OC(C)(C)C)c4ccccc4)C[C@@](O)([C@@H](OC(=O)c4ccccc4)[C@H]21)C3(C)C [Docetaxel] + O=S(=O)(c1ccccc1)N(CC(F)(F)F)c1ccc(C(O)(C(F)(F)F)C(F)(F)F)cc1 [T0901317] (first compound 0.0001 µM, partner dose 1.4 µM) | 64.5%
Nc1nc(F)nc2c1ncn2[C@@H]1O[C@H](CO)[C@@H](O)[C@@H]1O [fludarabine] + CCN(CC)CCCCNc1ncc2cc(-c3cc(OC)cc(OC)c3)c(NC(=O)NC(C)(C)C)nc2n1 [PD173074] (first compound 0.2 µM, partner dose 0.1 µM) | 90%
CC(=O)c1c(C)c2cnc(Nc3ccc(N4CCNCC4)cn3)nc2n(C2CCCC2)c1=O [palbociclib] + N#Cc1c(O)c2c(-c3ccc(-c4ccccc4O)cc3)csc2[nH]c1=O [A769662] (first compound 0.04 µM, partner dose 2 µM) | 90.1%
CC(=O)O[C@@]12CO[C@@H]1C[C@H](O)[C@@]1(C)C(=O)[C@H](O)C3=C(C)[C@@H](OC(=O)[C@H](O)[C@@H](NC(=O)OC(C)(C)C)c4ccccc4)C[C@@](O)([C@@H](OC(=O)c4ccccc4)[C@H]21)C3(C)C [Docetaxel] + Oc1cc(-c2nc(-c3ccccc3)[nH]c2-c2ccncc2)ccc1Cl [L779450] (first compound 0.0001 µM, partner dose 0.2 µM) | 55.4%
CC(=O)c1c(C)c2cnc(Nc3ccc(N4CCNCC4)cn3)nc2n(C2CCCC2)c1=O [palbociclib] + O=C(O)C(=O)Nc1sc2c(c1C(=O)O)CCNC2 [TCS401] (first compound 0.04 µM, partner dose 1.66667 µM) | 86.4%
Nc1ncn([C@H]2C[C@H](O)[C@@H](CO)O2)c(=O)n1 [decitabine] + COc1cc(N2CCC(N3CCN(C)CC3)CC2)ccc1Nc1ncc(Cl)c(Nc2ccccc2S(=O)(=O)C(C)C)n1 [NVP-TAE684] (first compound 0.1 µM, partner dose 0.08 µM) | 69.9%
CC(=O)c1c(C)c2cnc(Nc3ccc(N4CCNCC4)cn3)nc2n(C2CCCC2)c1=O [palbociclib] + CCCCCCCCCCCC1=C(O)C(=O)C=C(O)C1=O [Embelin] (first compound 0.04 µM, partner dose 1.2 µM) | 92.5%
CC(=O)O[C@@]12CO[C@@H]1C[C@H](O)[C@@]1(C)C(=O)[C@H](O)C3=C(C)[C@@H](OC(=O)[C@H](O)[C@@H](NC(=O)OC(C)(C)C)c4ccccc4)C[C@@](O)([C@@H](OC(=O)c4ccccc4)[C@H]21)C3(C)C [Docetaxel] + O=C1NC(=O)/C(=C/c2ccc(-c3ccc(F)cc3O)o2)S1 [AS252424] (first compound 0.0001 µM, partner dose 1 µM) | 69%
CC(=O)O[C@@]12CO[C@@H]1C[C@H](O)[C@@]1(C)C(=O)[C@H](O)C3=C(C)[C@@H](OC(=O)[C@H](O)[C@@H](NC(=O)OC(C)(C)C)c4ccccc4)C[C@@](O)([C@@H](OC(=O)c4ccccc4)[C@H]21)C3(C)C [Docetaxel] + O=c1cc(-c2cccc3c2Sc2ccccc2S3)oc(N2CCOCC2)c1 [KU55933] (first compound 0.0001 µM, partner dose 1 µM) | 60.5%
Nc1nc(F)nc2c1ncn2[C@@H]1O[C@H](CO)[C@@H](O)[C@@H]1O [fludarabine] + O=C(Nc1ccccc1)c1cc([N+](=O)[O-])ccc1Cl [GW9662] (first compound 0.2 µM, partner dose 2 µM) | 91.1%
Nc1ncn([C@H]2C[C@H](O)[C@@H](CO)O2)c(=O)n1 [decitabine] + COc1ccc2c(c1)CCC1C2CCC2(C)C(NCCCCCCN3C(=O)C=CC3=O)CCC12 [U73122] (first compound 0.1 µM, partner dose 0.4 µM) | 70%
Nc1ccn([C@@H]2O[C@H](CO)[C@@H](O)C2(F)F)c(=O)n1 [gemcitabine] + CCCCCCCCCCCC1=C(O)C(=O)C=C(O)C1=O [Embelin] (first compound 0.0004 µM, partner dose 1.2 µM) | 94%
Nc1ccn([C@@H]2O[C@H](CO)[C@@H](O)C2(F)F)c(=O)n1 [gemcitabine] + COC(=O)c1sccc1S(=O)(=O)Nc1ccc(Nc2ccccc2)cc1OC [GSK0660] (first compound 0.0004 µM, partner dose 1 µM) | 102%
